PubChem BioAssay AID1347071 (National Center for Advancing Translational Sciences (NCATS), 2019)
Among all 410,000 compounds or so, about 260 (0.063%) were called active. Inconclusive means that the source gave no clear call. Such entries were picked first, then a sample of the others. Calls come from the whole dose curve; as a rule, active = well fitted activation curve with a large enough effect; inconclusive = small, poorly fitted or top-dose-only effect; inactive = no such curve, though single readings can be large or run the other way. No potency is given beside an inconclusive call; the fits are too rough.

Experiment: qHTS for compounds that reverse cellular toxicity of Amyloid beta (A-beta) peptide in yeast: Primary Screen; note: nearly all actives have a fitted effect of over 55% in size
Details: yeast expressing A-beta42, growth rescue, OD600, 48 h; growth rescue: at 46.1 µM (top of the series), 0% DMSO, 100% iron-clioquinol control
Method in brief: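 Yeast A-beta toxicity model in growth medium with pinned compounds, 48 h at 30 C; growth read as absorbance at 600 nm. Normalized to FeCl3/clioquinol equimolar mix (positive) and DMSO (negative).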
Potency is the fitted concentration of half-maximal effect; tags give direction and shape of the fitted curve.

| SMILES | Potency |
| --- | --- |
| Cc1cc(C)cc(NC(=S)N2CCCC2)c1 | inconclusive [activator, partial curve, poor fit] |
| Cc1cccc(OCC(=O)N2CCN(c3nnc(-c4ccccc4)c4ccccc34)CC2)c1 | inconclusive [activator, single point] |
| CCOC(=O)[C@H]1[C@H]2COc3ccc(Cl)cc3[C@@H]2N2C(=O)CN(Cc3ccccc3)C(=O)[C@@]12C | inconclusive [activator, single point] |
| CCOc1ccc(-c2nc(N)ncc2Oc2ccc(OC)cc2)c(O)c1 | inconclusive [activator, single point] |
| O=C(COC(=O)Cc1c(F)cccc1Cl)NCCC1=CCCCC1 | inconclusive [activator, partial curve, poor fit] |
| CC1(C(=O)NS(=O)(=O)c2cccc(C#N)c2)CCN1C(=O)CC1CCCC1 (stereo not given) | inconclusive [activator, single point] |
| COc1ccc2cc(CCNS(=O)(=O)c3ccc(C)cc3)c(=O)[nH]c2c1 | inactive |
| Cc1c(C(=O)N2CCC(C)CC2)oc2ccc3c(c12)C(O)CC1(CCCCC1)O3 (stereo not given) | inconclusive [activator, single point] |
| Cc1ccc(NC(=S)N(Cc2ccco2)C(C)c2cccs2)c(Cl)c1 (stereo not given) | inconclusive [activator, partial curve] |
| Cc1ccc(Cl)c2c1NC(=O)C2(O)CC(=O)c1ccc(Br)cc1 (stereo not given) | inconclusive [activator, partial curve, poor fit] |
| CCN1C(=O)/C(=C/c2nc3ccccc3c(=O)n2-c2ccccc2)c2ccccc21 | inactive |
| COC(=O)c1ccccc1S(=O)(=O)N1CCC(C(=O)N(C)CCOc2ccccc2)CC1 | inconclusive [activator, single point] |
| Cc1ccc2cccc(NC(=O)COc3ccccc3Cl)c2n1 | inactive |
| Cc1[nH]nc(N=CC2=C(O)CC(C)(C)CC2=O)c1-c1ccc(Cl)cc1 | inactive |
| O=S(=O)(c1ccc2ccccc2c1)N1CCN(C(=S)Nc2ccccc2F)CC1 | inconclusive [activator, single point] |
| Cc1ccc2nc(SCC(=O)Nc3ccc(F)cc3F)[nH]c2c1 | inconclusive [activator, single point] |
| COc1ccc(CN2CCc3c(c(=O)n4ncc(C(=O)N5CCN(c6ccc(F)cc6)CC5)c4n3C)C2)cc1 | inconclusive [activator, single point] |
| CN1C(=O)[C@@H]2[C@@H]3C[C@@H]([C@H]4ON=C(c5ccc(Cl)cc5Cl)[C@@H]34)[C@@H]2C1=O | inconclusive [activator, full curve, poor fit] |
| Fc1cccc(Cn2cc(C(=S)N3CCOCC3)c3ccccc32)c1 | inconclusive [activator, single point] |
| Clc1ccc(OCCn2cnc3ccccc32)cc1 | inconclusive [activator, partial curve, poor fit] |

| SMILES | Potency |
| --- | --- |
| CCOc1ccc(C(=O)OCC(=O)Nc2ccc(SC(F)F)cc2)cc1OCC | inconclusive [activator, full curve, poor fit] |
| Nc1nc(SCc2ccc(Cl)cc2Cl)ns1 | inconclusive [activator, partial curve] |
| O=C1/C(=N\S(=O)(=O)c2cccs2)C([n+]2cccc(Cc3ccccc3)c2)=C([O-])c2ccccc21 | inactive |
| O=S(=O)(NCCc1csc(-c2cccnc2)n1)c1cccs1 | inconclusive [activator, single point] |
| S=C(Nc1ccccc1)Nc1ccc(Cl)cn1 | inconclusive [activator, partial curve] |
| CC(CCc1ccccc1)NC(=O)COC(=O)C12CC3CC(CC(Br)(C3)C1)C2 (stereo not given) | inconclusive [activator, partial curve, poor fit] |
| CCOC(=O)CCCc1ccc(/C(C)=N/NC(N)=S)cc1 | inconclusive [activator, single point] |
| CN(C)S(=O)(=O)c1cccc(NC(=O)COC(=O)/C=C/c2ccc(Br)o2)c1 | inactive |
| CN(C)C(=C(C#N)C#N)N1CCN(c2ccc(Cl)cc2)CC1 | inconclusive [activator, partial curve, poor fit] |
| S=C(NCc1ccc(Cl)cc1)NC1CCCCC1 | inconclusive [activator, partial curve, poor fit] |
| CCc1cccc(NC(=O)Cn2nc(-c3cc(C)ccc3C)ccc2=O)c1 | inconclusive [activator, partial curve, poor fit] |
| C#CCOc1c(Br)cc(/C=C2/C(=O)ON=C2C)cc1OCC | inconclusive [activator, partial curve] |
| COc1cccc(NC(=O)N2CCc3nc(Nc4cc(Cl)cc(Cl)c4)ncc3C2)c1 | inconclusive [activator, single point] |
| Cc1cc(C)nc(NC(=O)/C=C/c2ccccc2Cl)c1 | inactive |
| O=C1C2C3C=CC(C4CC34)C2C(=O)N1c1nccs1 (stereo not given) | inconclusive [activator, full curve] |
| COc1ccccc1N1CCN(S(=O)(=O)CCNC(=O)COc2ccc(C(C)C)cc2)CC1 | inconclusive [activator, single point] |
| Cc1sc2ncn(CC(=O)N3CCN(c4cccc(Cl)c4)CC3)c(=O)c2c1S(=O)(=O)N1CCN(c2ncccn2)CC1 | inactive |
| CCCCC(=O)NC(=S)Nc1ccccc1N1CCCCC1 | inconclusive [activator, partial curve, poor fit] |
| CN1CCc2nc3sc(C(=O)Nc4ccccc4OC(F)(F)F)c(N)c3cc2C1 | inactive |
| COc1ccc(C(CCNCc2ccc(F)cc2)c2ccc(F)cc2)cc1 (stereo not given) | inconclusive [activator, partial curve, poor fit] |
